Measured values reported in the RNAGym collection of RNA variant scans (doi:10.7554/elife.90254).
The source gives no read counts; variants with many changes may rest on few reads.

B1: LINE1-mini (parent)
chain: GGCAGAGCUCAACACAGCGUGGCAAAGUGGCUGUGGCUAGACUGCC

Variants of: B1
Test: self-cleavage, relative activity (ratio to wild type); higher = more cleavage; in vitro, sequencing; the parent is a self-cleaving ribozyme
Variant A6U C18U G35U has a self-cleavage of 0.18. A12U C13G C46G gave a self-cleavage of 0.04. G1U U9A C31A gave a self-cleavage of 0.01. Work on G22A C23U G29C yielded a self-cleavage of 0.63. In the case of G1U G7U C8A U20G C37A, the self-cleavage is reported as 0.03. For U9G G27U U32G, the self-cleavage was 0.09. For G1A A11C G17A A26U G40U, the self-cleavage was 0.03. With C18A G21C C42G the self-cleavage was 0.03. G5C C8U C18G A26C U28A G29A showed a self-cleavage of 0.01. C8U A11C C13A C18A G21A G40U showed a self-cleavage of 0.02. With G2U U9A C13A A16U U34G G40A the self-cleavage was 0.02. Variant C8G U28C C46U has a self-cleavage of 0.14. Variant C8U G27A G36U has a self-cleavage of 0.11. A4C A12C C18G G27U showed a self-cleavage of 0.02. C10A G21A A41U showed a self-cleavage of 0.04. A14C C31A G36C showed a self-cleavage of 0.06. For U9A G21U A26C G27C U38A, the self-cleavage was 0.25. For G7C C10U G27C, the self-cleavage was 0.03. C3A G22C A24U U38G gave a self-cleavage of 0.02. G2C A16U G36U showed a self-cleavage of 0.01. C15G A16U A39U showed a self-cleavage of 0.02. With A4U C23A G29U C31G the self-cleavage was 0.04. With G5A U9A A25C the self-cleavage was 0.09. G1A U20G G33C showed a self-cleavage of 0.02. Variant A4U A11G A26G G29C U43A has a self-cleavage of 0.01. Variant A4G U9A U32G has a self-cleavage of 0.03. A25C U28C G36U gave a self-cleavage of 0.03. A12G C23U G29U gave a self-cleavage of 0. For G1A A24C G27U, the self-cleavage was 0.19. Work on A12U U28G U32G A41C yielded a self-cleavage of 0.02. In the case of G5A G35C G36A U43A, the self-cleavage is reported as 0.07. With A4G A6C A25G A26C G30A the self-cleavage was 0.17. Variant A4C A14U U38G G40U has a self-cleavage of 0.07. In the case of C3U G17U U32G U34C, the self-cleavage is reported as 0.01. For G7A A12U G17A U20A C37U, the self-cleavage was 0.02. In the case of U9G A12C U28C G36C, the self-cleavage is reported as 0.02. A6G U20G G22U C42U gave a self-cleavage of 0.08. Work on C15U G29U C37U G44C C46A yielded a self-cleavage of 0.02. With A6U C10A C37U A41U G44A the self-cleavage was 0.01. Variant A4C G17U G27A U28A has a self-cleavage of 0.49. In the case of C3U G19C C45U, the self-cleavage is reported as 0.05. In the case of G2U G29C U34A G36C, the self-cleavage is reported as 0.01. Variant G2A A24U U34C has a self-cleavage of 0.17. Work on C23G G29U U32A yielded a self-cleavage of 0.03. With C8U C10A G19U U20A the self-cleavage was 0.03. For G5U U9C C37U, the self-cleavage was 0.03. With C3G U9G C18A U28C C31A U38C the self-cleavage was 0.05. In the case of G2U A4U C13G C23G, the self-cleavage is reported as 0.05. Variant C3A A12U C45G has a self-cleavage of 0.09. Variant C8A G22C G27C has a self-cleavage of 0.22. With C3U A4U G5C A11U A12C C13A U28G U34C A41G the self-cleavage was 0.03. In the case of C23A G40U C45U, the self-cleavage is reported as 0.18. G1U A11U G35A showed a self-cleavage of 0.01. With A4C G7A C37A C46U the self-cleavage was 0.77. With G2C C15G G33A C37U the self-cleavage was 0.01. Variant C8A C13A G33A U43A has a self-cleavage of 0.35. C3G C15G G22U A26C gave a self-cleavage of 0.02. C8A C13U C23U gave a self-cleavage of 0.22. With G5A A11C C18U G35U C45A C46U the self-cleavage was 0. G2U G5C A25C G27U U43C showed a self-cleavage of 0.01. Work on A11U G35A G36A yielded a self-cleavage of 0.02. C18A G19C C31G U43A gave a self-cleavage of 0.02. Variant G1A U9A G17A G21C has a self-cleavage of 0.4. Work on C10A A39G G44C yielded a self-cleavage of 0.01. With A4C G17U A24G the self-cleavage was 0.03. Work on G7C G21U G27A C42A yielded a self-cleavage of 0.04. A26U C31U U38A gave a self-cleavage of 0.22. G19C A25G C46A gave a self-cleavage of 1.26. G5A G7C C8G A26C G44U gave a self-cleavage of 0.03. Variant A6U A11U C15A A16U has a self-cleavage of 0.03. A25G C31U C46U showed a self-cleavage of 0.03. C23U G27A G29U U38G showed a self-cleavage of 0. With C3A G40C G44C the self-cleavage was 0.05. Work on G17C A25U C31A yielded a self-cleavage of 0.61. Variant G21A G33C U34A C42G has a self-cleavage of 0.01. For U9C A14G G40C U43C, the self-cleavage was 0.03. For G19A A24U A39G A41C C42G, the self-cleavage was 0.07. Work on A24U G36U U38G U43G G44C yielded a self-cleavage of 0.01. With G35U U38A G44C C45G the self-cleavage was 0.05. With A25U U28C G30U G44A C46G the self-cleavage was 0.07. C15U A16U C31A C42A gave a self-cleavage of 0.04. Variant G1A C23U A25G G36U has a self-cleavage of 0.21. With C8A C10U G33U the self-cleavage was 0.05. Variant A6C C15U G44U has a self-cleavage of 0.09. G1A C13U C31U G44C gave a self-cleavage of 0.06. With G7C G17U G35C U43A the self-cleavage was 0.27. U20G G21A G36C showed a self-cleavage of 0.09. For G29A G30A A39U G44U, the self-cleavage was 0.19. Variant C3U C15G G30C C37A has a self-cleavage of 0.02. A11G C23G U28G U34A showed a self-cleavage of 0.01. C15U U34G G35C showed a self-cleavage of 0.1. With A4U G27C C31U the self-cleavage was 0.03. In the case of U28A G40C C45U, the self-cleavage is reported as 0.15. C31U G35U C45U showed a self-cleavage of 0.03. C8G G17A G36C showed a self-cleavage of 0.03. Variant A14U U28G G30A G33U G35U C42G has a self-cleavage of 0.12. With G2U U9C A11U A26C U34C U38G C45U the self-cleavage was 0. G5A C10U G27U G30C gave a self-cleavage of 0.03. With G1A A6C C8U C10U A25C A26C the self-cleavage was 0.03. With C3A A12U C18U G19C C23U G29A G35U the self-cleavage was 0.22. For G7C A12U G19A, the self-cleavage was 0.61. For C3U C10G A16C U20A A25C G44A, the self-cleavage was 0.03. G19U U20G G21U gave a self-cleavage of 0.61. Work on G2C C8U G29U yielded a self-cleavage of 0.23. Work on G5A U20G G29U U32A C37U yielded a self-cleavage of 0.1. With A4G G29U U34G C37U A39G G40A the self-cleavage was 0.01. Variant G1C C3G G29U U43A has a self-cleavage of 0.09. With G1A C3U C8A G19U G36A the self-cleavage was 1. G5C A11U G30U gave a self-cleavage of 0.05. A6C C18G G27C U34G gave a self-cleavage of 0.03. G1C C18U G30A C46U gave a self-cleavage of 0.17. With U28G G30A G36C U38C the self-cleavage was 0.03. In the case of U20G A26G U43C, the self-cleavage is reported as 0.07. Variant C3U U28G G30A A39G has a self-cleavage of 0.05. G1U C3U U20A G40A C42U U43G gave a self-cleavage of 0.17. Work on G21C G33C A41G yielded a self-cleavage of 0.05. With A6G C8A A26C A39C G40U the self-cleavage was 0.02. Work on G1C A16C G27U C31U U32G yielded a self-cleavage of 0.03. Variant C15G G19C A39C has a self-cleavage of 0.02. In the case of C13U C15G G40U, the self-cleavage is reported as 0.13. C8A G19A C23G G27U G36C A41U gave a self-cleavage of 0.09. Work on A4C G22A C23G A26C A41U yielded a self-cleavage of 0.48. Work on C3U U20A G21C G22C yielded a self-cleavage of 0.17. For A6U U20C G36A, the self-cleavage was 0.05. Work on G5A C18A G22U U34C A41G yielded a self-cleavage of 0.02. Variant A6G U20A A26U U28A G30U has a self-cleavage of 0.08. Work on G7U G17C C18U yielded a self-cleavage of 0.25. Variant C3G U9A C18A G19C C37A C45U has a self-cleavage of 0.29. Work on G1C U9G U43C yielded a self-cleavage of 0.01. Work on G33C U38G G40C C42U yielded a self-cleavage of 0.01. Work on U9G C10G C13U C15U G36C G44U C45G yielded a self-cleavage of 0. Work on G22C G30C G33U yielded a self-cleavage of 0.05. In the case of G1A G30U G40C, the self-cleavage is reported as 0.02. Variant C13A U20A U32A has a self-cleavage of 0.04. Work on U34A G36U A39G U43A yielded a self-cleavage of 0.15. C3A A6C A26U G36U showed a self-cleavage of 0.11. Work on G2U G19C G29A yielded a self-cleavage of 0.03. Variant G5U G21U U34C G40C C45U has a self-cleavage of 0. For C3A A6G C13G U34C, the self-cleavage was 0.09. With G1C A14G G17C U28C U32G C42A the self-cleavage was 0.02. C13U A39C C42G showed a self-cleavage of 0.06. With G1U G2C G27C the self-cleavage was 0.04. Variant G2U G30A C37A has a self-cleavage of 0.05. A25U G30U U38G U43G G44A showed a self-cleavage of 0.01. A11C A12U G19C U28G showed a self-cleavage of 0. Variant C3U G21A G22A A41U has a self-cleavage of 0.69. A6C A16C C18U gave a self-cleavage of 0.03. Work on C10U U28C U38A C45U yielded a self-cleavage of 0.01. With C3A G5U C42U the self-cleavage was 0.17. With A6C A11U U34G the self-cleavage was 0.04. Work on G2A C13G G19C A26C G33U yielded a self-cleavage of 0.08. In the case of A11C C18A G19C C31G, the self-cleavage is reported as 0. With C23A A26U C42U the self-cleavage was 0.18. With G17C G36A G40C C45G the self-cleavage was 0.03. With G5C C15U U34G the self-cleavage was 0.04. Variant C8G C18U G21C A24U U28G U38A has a self-cleavage of 0. C13G A14U G17A A25G gave a self-cleavage of 0.17. With A11U G19C A24G A26U the self-cleavage was 0.02. Variant G1C C10A A41G has a self-cleavage of 0. A11U C18A G27C G36A showed a self-cleavage of 0.02. In the case of G1C C37U G40U, the self-cleavage is reported as 0. Variant C8G A12U U34G has a self-cleavage of 0.05. Work on U20G A24G U43C yielded a self-cleavage of 0. Variant G1A C13U G21C has a self-cleavage of 0.22. G5U A11G G44A C45U showed a self-cleavage of 0.02. With A4C C23U U28G C45G the self-cleavage was 0.01. Work on G1A G22A A25G U32A G40U C45A yielded a self-cleavage of 0.08.
